Key:
[1] = biological target: DNAJB1^wt (human), P25685; experiment: SEC; Superdex 75 10/300 GL and Superose 6; 30 mM HEPES-KOH pH 7.4, 50 mM KCl, 1 mM β-mercaptoethanol; 0.5 ml/min; Conalbumin and Ovalbumin as standards; settings: remark: other sources report otherwise

- half-life (T1/2) of HTTExon1Q48ΔP1 fibrilization, FRET assay over 60 h, with Hsc70, Apg2 and ATP (26 h without chaperones) (HTTExon1Q48ΔP1): 35 h
- stoichiometry N [1]: 2
B1: DNAJB1^wt (natural protein)
chain: MGKDYYQTLGLARGASDEEIKRAYRRQALRYHPDKNKEPGAEEKFKEIAEAYDVLSDPRKREIFDRYGEEGLKGSGPSGGSGGGANGTSFSYTFHGDPHAMFAEFFGGRNPFDTFFGQRNGEEGMDIDDPFSGFPMGMGGFTNVNFGRSRSAQEPARKKQ[about 150 residues not shown]PERIPQTSRTVLEQVLPI
